Test results as given in PubChem BioAssay AID624417 (National Center for Advancing Translational Sciences (NCATS), 2012).
The whole screen tested about 410,000 compounds, of which about 6,400 (1.6%) were called active. Inconclusive means that the source gave no clear call. Such entries were picked first, then a sample of the others. The call rests on the fitted dose curve; in most records, active means well fitted inhibition curve with a large enough effect; inconclusive means small, poorly fitted or top-dose-only effect; inactive means no such curve, though single readings can be large or run the other way. Potencies beside an inconclusive call are fits to weak or partial responses and may not hold up.

Target: Glucagon-like peptide 1 receptor (Homo sapiens) (UniProt P43220)
Assay: qHTS of GLP-1 Receptor Inverse Agonists (Inhibition Mode); further: nearly all actives have a fitted effect of over 55% in size
Settings: HEK293 GLP-1R CRE-luciferase, luminescence, 24 h, GLP-1R form is constitutively active; series mostly up to 38.3 µM
Method in brief: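 Stable HEK293 clone (constitutively active GLP-1R + cAMP-response luciferase); 200 cells/uL plated, 12 h pre-culture, compound 24 hr, 37 deg C/5% CO2; detection reagent 12 min RT; luminescence.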
Potency means the concentration at half of the fitted maximal effect; tags describe the fitted curve by direction and shape.

UniProt P43220, sequence (P43220 whole entry, looked up): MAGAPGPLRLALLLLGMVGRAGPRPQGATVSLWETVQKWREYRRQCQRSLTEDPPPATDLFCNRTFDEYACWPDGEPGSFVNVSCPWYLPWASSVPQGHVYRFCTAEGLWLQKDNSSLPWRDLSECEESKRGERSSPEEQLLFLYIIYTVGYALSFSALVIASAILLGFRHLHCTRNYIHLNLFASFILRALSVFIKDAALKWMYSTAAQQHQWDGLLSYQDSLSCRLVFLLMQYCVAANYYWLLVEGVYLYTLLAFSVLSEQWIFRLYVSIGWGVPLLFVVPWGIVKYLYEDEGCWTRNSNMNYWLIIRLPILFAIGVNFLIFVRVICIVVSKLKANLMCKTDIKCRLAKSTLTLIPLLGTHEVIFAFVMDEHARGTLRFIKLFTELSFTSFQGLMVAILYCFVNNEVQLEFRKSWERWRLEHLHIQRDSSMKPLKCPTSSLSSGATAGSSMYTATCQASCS

Potency, inconclusive:
COc1cccc(/C=N/NC(=S)Nc2cccc(C(=O)O)c2)c1O 7.94 µM [inhibitor, partial curve, poor fit]
CCN(CC)c1ccc(NC(=O)C2CC(=O)N(Cc3ccccc3)C2)cc1 (stereo not drawn) 15.8 µM [inhibitor, single point]
CCOc1ccc2c(c1)C(c1ccccc1)=NNC(c1ccccc1)=N2 11.2 µM [inhibitor, single point]
CN(c1ccccc1)S(=O)(=O)c1cccc(NC(=O)c2cncc(Br)c2)c1 28.2 µM [inhibitor, single point]
Cc1ccc(Cl)cc1N1CCN(CC(O)COCc2ccco2)CC1 (stereo not drawn) 11.2 µM [inhibitor, partial curve, poor fit]
c1ccc(CC(Cc2ccccc2)c2ccccn2)cc1 14.1 µM [inhibitor, single point]
Cc1cccc(N2CCN(C(=O)NCc3ccc(F)cc3)CC2)c1C 11.2 µM [inhibitor, partial curve]
CN(CCc1nc2ccc(Cl)cc2[nH]1)Cc1nc(CC2CC2)no1 5.01 µM [inhibitor, full curve]
O=C(CCl)Nc1cc(-c2ccccc2)nn1-c1ccccc1 3.55 µM [inhibitor, single point]
Cc1ccc(S(=O)(=O)Nc2ccccc2CNc2c(C)n(C)n(-c3ccccc3)c2=O)cc1 10 µM [inhibitor, single point]
O=C1/C(=C\c2cccs2)SC(=S)N1C1CCS(=O)(=O)C1 (stereo not drawn) 11.2 µM [inhibitor, single point]
CC(=O)OCC(=O)[C@@]1(O)[C@H](C)C[C@H]2[C@@H]3CCC4=CC(=O)C=C[C@]4(C)[C@@]3(F)[C@@H](O)C[C@@]21C 0.891 µM [inhibitor, full curve, poor fit]
Cc1cc(C)n(-c2ccc(C(=O)Nc3ccc(S(=O)(=O)N(C)C)cc3)cc2)n1 10 µM [inhibitor, partial curve, poor fit]
Cc1cc(Cl)ccc1OCC(=O)NNC(=O)C1CSC2(C)CCC(=O)N12 (stereo not drawn) 10 µM [inhibitor, partial curve, poor fit]

Potency, inactive:
CCOC(=O)/C(=C\c1ccccc1)NC(=O)c1ccccc1
CCc1nnc(N/N=C/c2cccs2)n1N
C=CCn1c(CNC(=O)c2ccccc2F)nnc1SCC(=O)NC(C)c1ccccc1 (stereo not drawn)
CCOC(=O)N1CCN(C(=O)c2ccc3c(c2)N(C)C(=O)/C(=C\c2ccc(OCC)c(OC)c2)S3)CC1
